The supplement of paper PMC4967469
A lower IC50 marks a more sensitive line; a limit (>, <) means that the fit lies beyond the doses tested. The AUC spans the tested range (256-fold, ending at the top dose) of the same fit; values near 1 show little effect. For part of these data: An inferred top dose was derived from the fitted curves, not read from the paper. For part of these data: Where an entry number is given, a second screen of the drug exists; the two often differ.

Columns and labels:
Assay in all cases: Viability of human cancer cell lines after 72 h of drug (GDSC screen)
Thapsigargin = compound: C/C=C(/C)C(=O)O[C@H]1C(C)=C2[C@H]([C@@H]1OC(=O)CCCCCCC)[C@@](C)(OC(C)=O)C[C@H](OC(=O)CCC)[C@@]1(O)[C@H]2OC(=O)[C@@]1(C)O [Thapsigargin]; settings: top dose 0.512 µM; top dose inferred
Method: (§1)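 Human cancer cell lines in 384-well plates, medium with 10% serum, drug for 72 h over a 256-fold dose range (nine 2-fold or five 4-fold steps up to the top dose). Adherent lines were fixed and stained with the nucleic acid dye Syto60, suspension lines read with resazurin; signal relative to control wells, capped at 0 and 100%. One two-parameter sigmoid per drug and line, fitted in a mixed model over all curves with the slope shared within a line.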

QL-X-138 = compound: C=CC(=O)Nc1cc(-n2c(=O)ccc3cnc4ccc(-c5cn[nH]c5)cc4c32)ccc1C [QL-X-138]; settings: top dose 10.24 µM; top dose inferred
Method: as §1

GSK269962A = compound: CCn1c(-c2nonc2N)nc2cnc(Oc3cccc(NC(=O)c4ccc(OCCN5CCOCC5)cc4)c3)cc21 [GSK269962A]; settings: top dose inferred
Method: as §1

MPS-1-IN-1 = compound: COc1cc(N2CCC(O)CC2)ccc1Nc1cc(Nc2ccccc2S(=O)(=O)C(C)C)c2cc[nH]c2n1 [MPS-1-IN-1]; settings: top dose 20 µM; top dose inferred
Method: as §1

(5Z)-7-Oxozeaenol = compound: COc1cc(O)c2c(c1)/C=C/C[C@H](O)[C@H](O)C(=O)/C=C\C[C@H](C)OC2=O [(5Z)-7-Oxozeaenol]; settings: top dose 10 µM; top dose inferred
Method: as §1

CP466722 = compound: COc1cc2ncnc(-n3nc(-c4ccccn4)nc3N)c2cc1OC [CP466722]; settings: top dose 16 µM; top dose inferred
Method: as §1

Zibotentan = compound: COc1nc(C)cnc1NS(=O)(=O)c1cccnc1-c1ccc(-c2nnco2)cc1 [Zibotentan]; settings: top dose 20 µM; top dose inferred
Method: as §1

ABT-888 = compound: C[C@]1(c2nc3c(C(N)=O)cccc3[nH]2)CCCN1 [ABT-888]; settings: top dose 5 µM; top dose inferred
Method: as §1

CMK = compound: Cc1ccc(-c2c(C(=O)CCl)n(CCCO)c3ncnc(N)c23)cc1 [CMK]; settings: top dose 4 µM; top dose inferred
Method: as §1

ABT-869 = compound: Cc1ccc(F)c(NC(=O)Nc2ccc(-c3cccc4[nH]nc(N)c34)cc2)c1 [ABT-869]; settings: top dose 1.024 µM; top dose inferred
Method: as §1

CHIR-99021 = compound: Cc1cnc(-c2cnc(NCCNc3ccc(C#N)cn3)nc2-c2ccc(Cl)cc2Cl)[nH]1 [CHIR-99021]
Method: as §1

Cytarabine = compound: Nc1ccn([C@@H]2O[C@H](CO)[C@@H](O)[C@@H]2O)c(=O)n1 [Cytarabine]; settings: top dose 2 µM
Method: as §1

KU-55933 = compound: O=c1cc(-c2cccc3c2Sc2ccccc2S3)oc(N2CCOCC2)c1 [KU-55933]; settings: top dose 10 µM
Method: as §1

[1] = top dose 2.5 µM, screen: GDSC drug entry 127
[2] = top dose 5 µM, screen: GDSC drug entry 1192
[3] = top dose 2.56 µM, screen: GDSC drug entry 154
[4] = top dose 10 µM, screen: GDSC drug entry 1241, top dose inferred

| Cell Line | AUC (Thapsigargin) | IC50 (Thapsigargin) [nM] | AUC (QL-X-138) | IC50 (QL-X-138) [nM] | AUC (GSK269962A; [1]) | IC50 (GSK269962A; [1]) [nM] | AUC (GSK269962A; [2]) | IC50 (GSK269962A; [2]) [nM] | AUC (MPS-1-IN-1) | IC50 (MPS-1-IN-1) [nM] | AUC ((5Z)-7-Oxozeaenol) | IC50 ((5Z)-7-Oxozeaenol) [nM] | AUC (CP466722) | IC50 (CP466722) [nM] | AUC (Zibotentan) | IC50 (Zibotentan) [nM] | AUC (ABT-888) | IC50 (ABT-888) [nM] | AUC (CMK) | IC50 (CMK) [nM] | AUC (ABT-869) | IC50 (ABT-869) [nM] | AUC (CHIR-99021; [3]) | IC50 (CHIR-99021; [3]) [nM] | AUC (CHIR-99021; [4]) | IC50 (CHIR-99021; [4]) [nM] | AUC (Cytarabine) | IC50 (Cytarabine) [nM] | AUC (KU-55933) | IC50 (KU-55933) [nM] |
| --- | --- | --- | --- | --- | --- | --- | --- | --- | --- | --- | --- | --- | --- | --- | --- | --- | --- | --- | --- | --- | --- | --- | --- | --- | --- | --- | --- | --- | --- | --- |
| BE2-M17 (neuroblastoma, adherent) | 0.43 | 20.5 | 0.88 | > 10200 | 0.984 | > 2500 | 0.755 | 1750 | 0.941 | > 20000 | 0.388 | 304 | 0.866 | 14900 | 0.983 | > 20000 | 0.98 | > 5000 | 0.915 | > 4000 | 0.985 | > 1020 | 0.982 | > 2560 | 0.986 | > 10000 | 0.73 | 579 | 0.985 | > 10000 |
| BE-13 (lymphoblastic leukaemia, suspension) | 0.274 | 7.69 | 0.799 | 4540 | 0.494 | 151 | 0.466 | 254 | 0.822 | 10700 | 0.704 | 2250 | 0.575 | 1580 | 0.977 | > 20000 | 0.978 | > 5000 | 0.957 | > 4000 | 0.862 | 783 | 0.978 | > 2560 | 0.817 | 5120 | 0.732 | 543 | 0.842 | 6350 |
| BT-474 (breast, adherent) | 0.721 | 147 | 0.435 | 416 | 0.982 | > 2500 | 0.888 | > 5000 | 0.968 | > 20000 | 0.702 | 2490 | 0.823 | 10900 | 0.98 | > 20000 | 0.986 | > 5000 | 0.985 | > 4000 | 0.984 | > 1020 | 0.986 | > 2560 | 0.97 | > 10000 | 0.972 | > 2000 | 0.986 | > 10000 |
| BV-173 (chronic myeloid leukaemia, suspension) | 0.349 | 13 | 0.382 | 316 | 0.9 | > 2500 | 0.822 | 2470 | 0.748 | 5780 | 0.762 | 3170 | 0.578 | 1590 | 0.988 | > 20000 | 0.952 | > 5000 | 0.935 | > 4000 | 0.989 | > 1020 | 0.976 | > 2560 | 0.844 | 5910 | 0.183 | 16.4 | 0.843 | 5880 |
| Becker (glioma, adherent) | 0.667 | 99.6 | 0.8 | 5710 | 0.937 | > 2500 | 0.855 | 4790 | 0.978 | > 20000 | 0.696 | 2400 | 0.856 | 15600 | 0.967 | > 20000 | 0.982 | > 5000 | 0.946 | > 4000 | 0.967 | > 1020 | 0.942 | > 2560 | 0.9 | > 10000 | 0.782 | 943 | 0.949 | > 10000 |
| CA46 (Burkitt lymphoma, suspension) | 0.295 | 8.08 | 0.445 | 449 | 0.928 | > 2500 | 0.795 | 2510 | 0.838 | 15000 | 0.726 | 2890 | 0.635 | 2430 | 0.982 | > 20000 | 0.984 | > 5000 | 0.946 | > 4000 | 0.97 | > 1020 | 0.985 | > 2560 | 0.924 | > 10000 | 0.968 | > 2000 | 0.966 | > 10000 |
| CAS-1 (glioma, adherent) | 0.602 | 67.6 | 0.745 | 4280 | 0.685 | 627 | 0.527 | 380 | 0.979 | > 20000 | 0.782 | 5860 | 0.888 | > 16000 | 0.953 | > 20000 | 0.982 | > 5000 | 0.937 | > 4000 | 0.951 | > 1020 | 0.941 | > 2560 | 0.899 | > 10000 | 0.908 | > 2000 | 0.973 | > 10000 |
| CESS (acute myeloid leukaemia, suspension) | 0.503 | 32.6 | 0.255 | 144 | 0.962 | > 2500 | 0.931 | > 5000 | 0.862 | 13200 | 0.694 | 2000 | 0.627 | 2110 | 0.983 | > 20000 | 0.991 | > 5000 | 0.825 | 1960 | 0.991 | > 1020 | 0.975 | > 2560 | 0.98 | > 10000 | 0.96 | > 2000 | 0.97 | > 10000 |
